One variant from IntAct's records for PubMed 16917505 can be followed below.

To fix the notation:
B1: Somatostatin receptor type 2 (Homo sapiens), P30874 (parent)
chain: MDMADEPLNGSHTWLSIPFDLNGSVVSTNTSNQTEPYYDLTSNAVLTFIYFVVCIIGLCGNTLVIYVILRYAKMKTITNIYILNLAIADELFMLGLPFLAMQVALVHWPFGKAICRVVMTVDGINQFTSIFCLTVMSIDRYLAVVHPIKSAKWRRPRTAKMITMAVWGVSLLVILPIMIYAGLRSNQWGRSSCTINWPGESGAWYTGFIIYTFILGFLVPLTIICLCYLFIIIKVKSSGIRVGSSKRKKSEKKVTRMVSIVVAVFIFCWLPFYIFNVSSVSMAISPTPALKGMFDFVVVLTYANSCANPILYAFLSDNFKKSFQNVLCLVKVSGTDDGERSDSKQDKSRLNETTETQRTLLNGDLQTSI

In this assay the parent is B1. The settings on record: with p85a_human PIK3R1, P27986.
In the case of MDMADEPLNGSHTWLSIPFDLNGSVVSTNTSNQTEPYYDLTSNAVLTFIYFVVCIIGLCGNTLVIYVILRFAKMKTITNIYILNLAIADELFMLGLPFLAMQVALVHWPFGKAICRVVMTVDGINQFTSIFCLTVMSIDRYLAVVHPIKSAKWRRPRTAKMITMAVWGVSLLVILPIMIYAGLRSNQWGRSSCTINWPGESGAWYTGFIIYTFILGFLVPLTIICLCYLFIIIKVKSSGIRVGSSKRKKSEKKVTRMVSIVVAVFIFCWLPFYIFNVSSVSMAISPTPALKGMFDFVVVLTYANSCANPILYAFLSDNFKKSFQNVLCLVKVSGTDDGERSDSKQDKSRLNETTETQRTLLNGDLQTSI [Y71F], the “effect of a mutation on the interaction” value is given as “disrupting interaction”.
